# Assay results published in article PMC6919601, “Identification of Plasmodium dipeptidyl aminopeptidase allosteric inhibitors by high throughput screening” (PLoS ONE, 2019).
# The campaign covered roughly 110,000 compounds. About 230 (0.21%) showed an effect of 50% or more. Some of the results follow.
# Biological target: DPAP1 (Plasmodium falciparum, UniProt Q8IIJ9)
# Experiment: primary screen, percent inhibition; read by cleavage of a fluorogenic dipeptide substrate; higher = more effect of the substance
# Set-up: species or system P. falciparum D10 trophozoite lysates; single well
# 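Also: 30 min substrate incubation versus DMSO and 10 µM JCP410 controls.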
# Chain of DPAP1 (Q8IIJ9 whole entry, looked up): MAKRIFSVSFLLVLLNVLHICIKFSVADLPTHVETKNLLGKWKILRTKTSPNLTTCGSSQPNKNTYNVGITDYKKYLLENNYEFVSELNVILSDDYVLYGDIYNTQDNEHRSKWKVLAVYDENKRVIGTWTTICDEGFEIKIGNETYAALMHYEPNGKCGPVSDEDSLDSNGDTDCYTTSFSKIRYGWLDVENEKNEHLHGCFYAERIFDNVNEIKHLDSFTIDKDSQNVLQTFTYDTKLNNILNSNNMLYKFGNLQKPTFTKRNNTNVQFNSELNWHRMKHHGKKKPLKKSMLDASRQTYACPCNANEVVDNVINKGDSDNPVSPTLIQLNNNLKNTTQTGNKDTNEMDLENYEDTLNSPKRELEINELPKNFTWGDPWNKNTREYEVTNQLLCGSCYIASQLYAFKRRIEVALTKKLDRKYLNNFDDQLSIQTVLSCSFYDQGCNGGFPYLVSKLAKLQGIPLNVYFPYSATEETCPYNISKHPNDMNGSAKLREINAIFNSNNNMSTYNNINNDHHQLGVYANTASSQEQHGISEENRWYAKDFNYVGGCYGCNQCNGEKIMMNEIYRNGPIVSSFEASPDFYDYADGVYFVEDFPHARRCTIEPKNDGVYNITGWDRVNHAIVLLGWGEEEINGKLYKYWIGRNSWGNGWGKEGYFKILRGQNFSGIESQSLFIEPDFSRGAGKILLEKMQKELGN
row,Structure (SMILES),% Inhibition @ 10 uM
1,C#CC(C)(C)NCCC(=O)/C(C)=C/C,-7.52%
2,COc1cc(C2C(C#N)=C(N)Oc3[nH]nc(C(C)(C)C)c32)cc(OC)c1OC (stereo not drawn),2.92%
3,COc1ccccc1C(=O)NCc1nnc(SCC(=O)Nc2nccs2)n1-c1cccc(C)c1,-4.97%
4,O=C(CCCc1c[nH]c2ccccc12)NCCN1CCOCC1,3.47%
5,Cc1cccnc1NC(=O)Nc1cn(CC(C)C)c(=O)c2ccccc12,-0.171%
6,O=C(NCCc1ccccc1)c1cc(C2CC2)on1,3.55%
7,O=c1[nH]c(=S)ccn1-c1nc(-c2ccccc2)sc1-c1ccccc1,1.33%
8,CN1c2ccccc2N(C)C1c1c(O)ccc2ccccc12,5.63%
9,CN1CCC(N(C)Cc2ccccc2[N+](=O)[O-])CC1,1.55%
10,CN1CCN(CCCn2nnc3c(=O)oc4ccccc4c32)CC1,-6.06%
11,COc1cccc(NC(=O)[C@@H]2C3C=CC(C3)[C@@H]2C(=O)O)c1 (stereo partly drawn),-2.63%
12,Cc1ccc2c(c1)-c1c(cnn1CC(=O)N1CCN(c3ncccn3)CC1)CO2,-6.07%
13,O=C1CC(c2ccc(Cl)cc2)NC(NC(=O)c2cccnc2)=N1 (stereo not drawn),-10.3%
14,O=C1NC(=O)C(=CNc2ccccc2Oc2ccccc2)C(=O)N1,-4.91%
15,O=C(O)c1cc(Cl)c(Cl)cc1C(=O)Nc1ccccc1O,-3.78%
16,Cc1ccc(NC(=O)CN2C(=O)S/C(=C\c3ccccn3)C2=O)cc1C,-9.93%
17,COc1ccc(NC(=O)/C=C/c2ccco2)cn1,-1.46%
18,O=C(Nc1ccc(Oc2ccccc2)cc1)c1ccncc1,-11.7%
19,COc1cccc(CNCc2cc(F)ccc2F)c1OC,-2.73%
20,CN1CCN(C(=O)c2nn(C)c3c2CS(=O)(=O)c2ccccc2-3)CC1,-2.58%
21,Nn1cnnc1SCc1ccc(F)cc1,-6.6%
22,O=C(N/C(=C\c1ccco1)C(=O)N1CCCC(CO)C1)c1ccccc1 (stereo not drawn),-0.996%
23,COc1cccc(-c2cn3c(n2)sc2cc(C(=O)NCc4cccc(OC)c4OC)ccc23)c1,4.59%
24,COCc1cc(C)nc(SCC(=O)O)c1C#N,-0.999%
25,CCCCOC(=O)Nc1nc2ccccc2s1,4.01%
26,Clc1ccc(C2CC(c3ccco3)n3ncnc3N2)c(Cl)c1 (stereo not drawn),0.189%
27,CCC1(C)COC2(OC1)C(=O)Nc1ccccc12 (stereo not drawn),-2.88%

row,Structure (SMILES),% Inhibition @ 10 uM
1,CNC(=O)C1CC(=O)N(C2CCCCCC2)C1 (stereo not drawn),-1.79%
2,O=S(=O)(c1ccc(Cl)c(Cl)c1)N1CCn2c(nc3ccccc32)C1,3.53%
3,O=C(NCCCc1ccccc1)Nc1cccc(Cl)c1,-5.34%
4,CC1CCCCC1NC(=O)C1CCN(S(=O)(=O)N2CCOCC2)CC1 (stereo not drawn),6.74%
5,Cc1nc2nc(-c3ccc(Cl)cc3Cl)nn2c(C)c1CCC(=O)NCc1ccc2c(c1)OCO2,-0.465%
6,Cc1cccc(OCCCCCn2ccnc2)c1,2.76%
7,COc1cccc(CN(C(=O)COc2ccc(Cl)cc2Cl)C2CCS(=O)(=O)C2)c1 (stereo not drawn),-4.95%
8,Cc1cn(CC(=O)c2ccccc2)c2ccccc12,0.255%
9,Cc1cccc2c1Sc1ccccc1CC2N1CCNCC1 (stereo not drawn),-2.18%
10,CC(C)(CNC(=O)c1ccccc1Cl)CNC(=O)c1ccccc1Cl,-1.61%
11,COC(=O)c1ccc(/C=c2\sc3nc(-c4cccs4)nn3c2=O)cc1,3.54%
12,CCn1c2ccccc2c2cc(CNCCNC(=O)c3nonc3N)ccc21,-5.33%
13,COc1ccc(CC(=O)Nc2cc(Cl)ccc2Cl)cc1OC,0.583%
14,Cc1cc(CN2CCN(Cc3ccccc3)CC2)cs1,3.36%
15,N#C/C(=C\c1ccc(-c2ccc(Cl)cc2Cl)o1)c1nc2ccccc2[nH]1,6.08%
16,CCc1ncc(C(O)(c2ccccc2)c2ccccc2)n1C,-3.32%
17,Cc1ccc(-c2c(O)c(=O)/c2=N\C(C)c2ccccc2)cc1 (stereo not drawn),-2.28%
18,COc1ccc(C(=O)OC(C)CN(C)C)cc1 (stereo not drawn),2.32%
19,COC(=O)c1c(NC(=O)CSc2ncnc3sc4c(c23)CCCC4)sc2c1CCC2,1.63%
20,CCC(C)NC(=O)COCc1cc(-c2ccc(F)cc2)on1 (stereo not drawn),3.12%
21,C=CCSc1nc(O)c2cnn(-c3ccc(Cl)cc3)c2n1,-1.54%
22,O=C(CCCC(=O)Nc1cccc(C(F)(F)F)c1)Nc1cccc(C(F)(F)F)c1,-4.96%
23,O=C(Nc1cnn(Cc2ccc(F)cc2)c1)c1cnccn1,3.94%
24,COc1ccc(CCCC(=O)NCCc2ccccc2)c(C)c1,-7.69%
25,COc1ccc(-c2c(C#N)c(N)nc(OC)c2C#N)c(OC)c1,-1.86%
26,CC(C)CC(C(=O)NCC#N)c1nc(-c2cccc([N+](=O)[O-])c2)cs1 (stereo not drawn),-4.72%
27,C=CCSc1nc(C2CC2)cc(-c2ccccc2)c1C#N,4.67%

row,Structure (SMILES),% Inhibition @ 10 uM
1,CC12CN3CC(C)(CN(C1)C3C(O)C(O)C(O)CO)C2 (stereo not drawn),-3.64%
2,Cc1ccc(C(=O)Nc2ccccn2)cc1,-1.56%
3,COc1ccc(Nc2oc(COc3ccc(C)cc3)nc2C#N)cc1,-5.01%
4,Cc1ccccc1Oc1ccc(S(=O)(=O)N2CCN(Cc3ccc4c(c3)OCO4)CC2)cc1,-6.65%
5,CCCCN1C(=O)C(F)(c2ccccc2)C(=O)c2ccccc21 (stereo not drawn),-9.55%
6,CCN(CC)S(=O)(=O)c1ccc(-c2csc(N3N=C(c4ccccc4)CC3c3ccccc3)n2)cc1 (stereo not drawn),-0.771%
7,C=CCN(C(=O)c1ccc(Cl)cc1Cl)c1nnc(-c2ccncc2)s1,-4.35%
8,CC(CCc1ccc(O)cc1)NC1C2CC3CC(C2)CC1C3 (stereo not drawn),-0.0494%
9,Clc1cccc(-c2nnc3sc(-c4cnccn4)nn23)c1,7.5%
10,CCCCSc1nc(C)c(C(C)=O)cc1C#N,3.65%
11,COc1cccc(C2NC(C(=O)O)Cc3c2[nH]c2ccccc32)c1 (stereo not drawn),-3.62%
12,CCOc1ccccc1NC(=O)C1=C(C)NC(=O)NC1c1c(OC)ccc2ccccc12 (stereo not drawn),1.4%
13,CC(C)CC(NC(=O)/C(=C\c1ccc(F)cc1)NC(=O)c1ccco1)C(=O)O (stereo not drawn),16.7%
14,CCN1CCCC1CNC(=O)C1=CCN(S(=O)(=O)c2ccccc2)CC1 (stereo not drawn),0.137%
15,Cn1c(/C(=C/c2ccc(Cl)cc2Cl)C2=NC(=O)CS2)nc2cccnc21,-10.7%
16,COc1ccc(-c2noc(-c3ccccn3)n2)cc1OC,-7.17%
17,O=C(O)c1cnc2c(Cl)cccc2c1O,-6.22%
18,CC(NC(=O)c1cccc([N+](=O)[O-])c1)c1ccccc1 (stereo not drawn),3.42%
19,CCOc1ccc(NC(=O)COc2ccc(CC)cc2Br)cc1,-1.11%
20,CC1C(=O)C(C)C(c2ccc(N(C)C)cc2)NC1c1ccc(N(C)C)cc1 (stereo not drawn),2.45%
21,COc1cccc(CN2CCC(O)CC2)c1,-3.56%
22,CCC(C(=O)NC(C)CCc1ccccc1)n1nc(C)n2c(cc3sccc32)c1=O (stereo not drawn),0.137%
23,COc1c(Cl)cc(-c2noc(C)c2C(=O)NCc2ccc3c(c2)OCO3)cc1Cl,2.9%
24,O=C(c1cc(S(=O)(=O)N2CCCCC2)c[nH]1)N1CCN(C(c2ccccc2)c2ccccc2)CC1,3.46%
25,Cc1noc(C)c1S(=O)(=O)N1CCCC(C(=O)NCc2ccccc2Cl)C1 (stereo not drawn),-1.03%
26,Cc1cc(O)c2c(C)c(CC(=O)N3CCCC3)c(=O)oc2c1,2.54%
27,CC1=C(c2ccc(C(C)C)cc2)S(=O)(=O)N=C1NCc1ccc(C)cc1,2.27%

row,Structure (SMILES),% Inhibition @ 10 uM
1,CC(C)N(CCC#N)S(=O)(=O)c1ccc([N+](=O)[O-])cc1,-4.06%
2,CCOc1cc(/C=C2/SC(=O)N(CC)C2=O)c(Br)cc1O,-5.54%
3,CCN(CC)S(=O)(=O)c1ccc(S(=O)(=O)N(Cc2ccc(F)cc2)Cc2ccco2)cc1,3.66%
4,CCCCCCS(=O)(=O)Nc1ccc([N+](=O)[O-])cc1O,-0.294%
5,CCCCNc1ncnc2c1cnn2-c1ccc(Cl)cc1,5.38%
6,CCCOc1ccc(CC(=N)N)cc1,2.46%
7,COC(=O)c1sccc1S(=O)(=O)N1CCC(C)CC1,-2.66%
8,CCN(CC)CCC#CC(OC)(c1ccccc1)c1ccccc1,-1.77%
9,CCSc1nnc(NC(=O)c2cc(-c3cccs3)nc3ccccc23)s1,-1.1%
10,CCc1nnc2c3c4c(sc3ncn12)CCC4,-4.35%
11,CSc1nn(C)c2nc3sc4c(c3c(=O)n12)CC(C)(C)OC4,-1.2%
12,COc1ccccc1CCNC1CCN(C(C)=O)CC1,1.38%
13,COC(=O)c1c(C)oc2ccc(OCc3c(F)c(F)c(F)c(F)c3F)cc12,-4.24%
14,Cc1cc(C)c(S(=O)(=O)NC(=O)C23CC4CC(CC(C4)C2)C3)c(C)c1,5.04%
15,O=C1C2CC=CCC2C(=O)N1c1ccccc1O (stereo not drawn),-2.8%
16,COc1ccc(CCNC(=O)Cn2cc(S(=O)(=O)Cc3ccccc3)c3ccccc32)cc1OC,-1.6%
17,Cc1cccc(-n2ncc3c2ncn2c(COc4ccccc4C)nnc32)c1,-5.85%
18,Cc1cc(O)nc(SCC(=O)Nc2cccc(C)c2C)n1,5.15%
19,CC(C(=O)N1CCN(c2ccccn2)CC1)n1sc2ccccc2c1=O (stereo not drawn),-6.64%
20,CCCC12CCC(C(=O)O)(CC1)CC2,4.16%
21,CC(C)CCNC(=O)Cn1ncc2c3ccccc3nc-2c1O,-5.3%
22,COc1ccc(/C(O)=C/C=N/c2ccccc2F)cc1OC,-4.71%
23,CCCN(CCO)Cc1ccc(F)cc1,-4.14%
24,COCCNC(=O)CCCc1nnc2n(Cc3ccccc3)c(=O)c3ccccc3n12,1.68%
